The text below walks through data of article PMC8115694, “Distinct axial and lateral interactions within homologous filaments dictate the signaling specificity and order of the AIM2-ASC inflammasome” (Nature Communications, 2021).

The data set deals with the molecule itself. Put plainly: FRET or BRET; polymerization assay: 2 uM FRET mix (donor- and acceptor-labelled) of MBP-tagged AIM2^PYD or ASC^PYD with TEVp in a 384-well plate, with or without dsDNA-bound AIM2^FL or precleaved ASC^FL. Background: Bioluminescence resonance energy transfer reports proximity on the nanometre scale.

B1: ASC^PYD ([…]), fluorophore-labelled (domain or fragment)
chain: not shown
modifications: fluorophore label (Alexa488 or Dylight550; FRET donor or acceptor), site not stated
notes: ASC (apoptosis-associated speck-forming protein containing CARD), human, pyrin domain, […]; also called MBP-ASC^PYD; source: MBP cleaved with TEVp in the assay; not shown: MBP, N-terminal, cleaved
Consider B1, for which the binding result is recorded as “binds”.
